# Experimental data from the supplement of paper PMC3334620.
# Whole data set: some 33,000 sequences, median “E-score (-0.5 to 0.5)” near -0.054, cut for the highest 2% near 0.39. The list shows a part of the results.
# Molecular target: Ylr278c (UniProt Q05854)
# Assay: PBM E-score (8-mer binding enrichment) (E-score (-0.5 to 0.5)); higher = stronger / more preferred TF binding; most listed sequences are background and not binding sites
# Conditions: protein concentration: 200 nM; construct: GST-DNA-binding domain
# Procedure, shortened: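 Each ungapped eight-base word and its reverse complement, pooled, received an E-score from the Universal PBM Analysis Suite. Underlying scans, normalised with masliner, recorded fluorescent anti-GST bound to GST-tagged yeast transcription factors. These were applied at about 100-200 nM to universal all-10-mer Agilent arrays double-stranded by primer extension.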
row,Sequence,PBM E-score
1,AAACGACT,-0.0402
2,CTATCATA,-0.0715
3,GCCATTTA,-0.0531
4,CAGCATCA,-0.245
5,TATTTTGA,-0.142
6,CAAAGGCA,-0.191
7,TCGTCCAA,-0.0264
8,ATGGGAAT,-0.0629
9,GCATGCCA,-0.199
10,ACTATACT,-0.0985
11,TTCCCCAA,-0.105
12,CAAGTTAA,-0.229
13,CGGTACCC,0.0783
14,AACTGGCA,-0.0344
15,CCGCATGC,0.199
16,CCCAGCAG,0.0256
17,AACTCAAT,0.00165
18,AACAATGG,-0.16
19,GCGAATAC,0.0752
20,TAGACAAA,-0.125
21,AATGTTCG,0.13
22,CCAGGCCA,-0.197
23,ATCTCTAG,-0.194
24,ATACTTTA,-0.0666
25,CCGTCCCC,0.156

row,Sequence,PBM E-score
1,CTGCATAC,-0.0346
2,CGCGCTTA,0.0847
3,CATTTACA,-0.156
4,CTAGTTTA,-0.22
5,AGGACGAG,-0.227
6,ACTCATAT,-0.0959
7,AAAGTGGA,-0.204
8,GAGAGGCC,-0.0389
9,AATTGTGT,-0.119
10,GGTTGATA,-0.0138
11,ACTTGACG,-0.135
12,ACCCTCTG,-0.175
13,CTTTGCGA,-0.0206
14,AAGGCCTA,-0.133
15,CGTGTTAG,0.0187
16,GCATGTTA,0.0801
17,GAAAGGTC,0.0206
18,ACGACGTA,-0.221
19,ATACGGTG,0.0149
20,AACTACCT,0.114
21,CCGGTAAC,0.3
22,GCGCAACA,0.0413
23,ACGATGCC,-0.208
24,ATCAACAA,-0.0598
25,CTAAAGCC,-0.125

row,Sequence,PBM E-score
1,ATAAGTTG,-0.0479
2,AGGAAGTG,-0.0601
3,GTACGTGA,-0.198
4,ATGAAATG,0.0162
5,GGCTGAAC,0.0333
6,GCGTCTTA,-0.209
7,CCGACACC,0.348
8,ACAAGGGT,-0.144
9,GGAACTCA,0.189
10,TCATGGAA,0.067
11,AGTAGCAC,-0.159
12,AAGGATAG,0.0333
13,CTGACCGC,0.122
14,TCATAGGA,-0.0414
15,ACATGGGT,-0.0947
16,AGCTACGC,-0.137
17,TAAAGAAA,0.0382
18,ACGTTAGG,-0.153
19,ACGAACGC,0.0182
20,CGCGGATA,0.32
21,GGTAGTCA,-0.12
22,ATCACCAG,-0.0554
23,ACTGAAAA,-0.0502
24,CTTCTCTC,-0.0355
25,CTTAGCTA,-0.178

row,Sequence,PBM E-score
1,ACGCCTCG,0.0517
2,GCGTTGTA,-0.108
3,CCATGAAA,-0.0325
4,CTAGCCAC,-0.325
5,ACGGATCT,0.191
6,GTATTCGA,-0.134
7,GTGGGCGA,-0.196
8,CCGGAGAC,0.444
9,CAGAGGAC,-0.187
10,ACTAGTAT,-0.0593
11,ATAGAACC,0.013
12,ACAGACCA,-0.0751
13,CTGCACAG,-0.104
14,GGGAAGAC,-0.0678
15,TAGCTAAA,-0.192
16,AGGGATGG,0.00831
17,AGTTTTGC,0.0673
18,CGGACTAA,0.423
19,CACACCAG,-0.26
20,ACGACGCA,-0.0635
21,AATCCCCA,-0.0702
22,GGTACTAC,0.0675
23,CTTCGGGC,0.0457
24,AGTAGCCC,0.0625
25,CGCAGTTC,0.0606

row,Sequence,PBM E-score
1,CCACTAAG,-0.0399
2,AGTGGCAT,-0.215
3,GCGAAGCA,0.128
4,AGATTTTA,-0.148
5,TATTGGGA,-0.141
6,GGAGGACC,0.13
7,CACCGATG,0.112
8,CCCGATTA,0.216
9,AGGACTGC,-0.338
10,AGACTCAG,-0.16
11,GAATTCAC,0.00474
12,GTATCCAA,-0.13
13,CACCGGAA,0.427
14,CCATGTGA,-0.202
15,AAATTAGA,0.0288
16,TCCAATCA,8e-05
17,CTCGTTGA,-0.273
18,ATTGACAG,-0.0371
19,GAAAGTCC,0.366
20,ACCTTTGA,-0.165
21,ATCCTCAA,-0.0664
22,GCAATCGA,-0.0424
23,ACGTCATG,-0.0961
24,ATTACGCG,0.16
25,ACCAGCGA,0.0382

row,Sequence,PBM E-score
1,CGGGTAAC,0.177
2,CAGCCGCA,-0.211
3,AGATAAAA,0.0376
4,AATTTCGT,-0.0607
5,AGTAACGA,0.0316
6,GACACATA,-0.119
7,AGGAACTC,0.0174
8,CGCTTGAG,-0.0647
9,AAGCGACA,-0.0242
10,AAGGTAGT,-0.0336
11,AACGCAGC,-0.0734
12,TCGCTAAA,-0.123
13,AGGTCCAT,-0.0626
14,CACTCACA,-0.0322
15,ACTGTTCA,-0.122
16,CGATATCA,0.0303
17,CACCGTCC,0.153
18,AATCGCCG,0.367
19,GCCGGTGA,0.298
20,AGGCCGCA,-0.0298
21,ATTATATA,-0.0714
22,CCGACACA,0.178
23,GGACTCCA,0.149
24,AGAAAACG,0.00776
25,CCCCATGA,-0.194

row,Sequence,PBM E-score
1,ACCATCCA,-0.212
2,CCATCAAG,-0.239
3,CCTGGGCA,-0.305
4,ATTAAGCG,0.102
5,CGTCCGGA,0.43
6,ACGTCTAT,-0.17
7,CACGTATA,-0.145
8,AGCGTTCA,-0.209
9,GGCAAACC,-0.0222
10,TAACCTCA,-0.156
11,CATCGGAC,0.424
12,AAATCTGA,-0.0879
13,AGCTATGA,-0.19
14,GCGGTGAA,0.193
15,CATACCTC,-0.13
16,ACTCATCC,-0.0863
17,AAACAGCC,-0.131
18,GCTACGAA,-0.212
19,ATGATTGG,-0.00969
20,AGCCTGAC,-0.13
21,GCATGTAA,-0.134
22,ATCAGGCA,-0.0962
